Source: PubChem BioAssay AID1460 (National Center for Advancing Translational Sciences (NCATS), 2008)
The campaign covered roughly 270,000 compounds. About 5,800 (2.1%) were called active. The shares of active, inactive and inconclusive entries below differ from those in the screen. Calls come from the whole dose curve; as a rule, active = well fitted inhibition curve with a large enough effect; inconclusive = small, poorly fitted or top-dose-only effect; inactive = flat fitted curve, though single readings scatter. A potency beside an inconclusive call is a rough fit, not a confirmed value.

These compounds were tested against Microtubule-associated protein tau (Homo sapiens) (UniProt P10636) (assay: qHTS for Inhibitors of Tau Fibril Formation, Thioflavin T Binding). Details: recombinant tau K18 P301L, heparin-induced fibrillization, ThT fluorescence; series mostly up to 57.4 µM.
Chain of UniProt P10636 (P10636 whole entry, looked up): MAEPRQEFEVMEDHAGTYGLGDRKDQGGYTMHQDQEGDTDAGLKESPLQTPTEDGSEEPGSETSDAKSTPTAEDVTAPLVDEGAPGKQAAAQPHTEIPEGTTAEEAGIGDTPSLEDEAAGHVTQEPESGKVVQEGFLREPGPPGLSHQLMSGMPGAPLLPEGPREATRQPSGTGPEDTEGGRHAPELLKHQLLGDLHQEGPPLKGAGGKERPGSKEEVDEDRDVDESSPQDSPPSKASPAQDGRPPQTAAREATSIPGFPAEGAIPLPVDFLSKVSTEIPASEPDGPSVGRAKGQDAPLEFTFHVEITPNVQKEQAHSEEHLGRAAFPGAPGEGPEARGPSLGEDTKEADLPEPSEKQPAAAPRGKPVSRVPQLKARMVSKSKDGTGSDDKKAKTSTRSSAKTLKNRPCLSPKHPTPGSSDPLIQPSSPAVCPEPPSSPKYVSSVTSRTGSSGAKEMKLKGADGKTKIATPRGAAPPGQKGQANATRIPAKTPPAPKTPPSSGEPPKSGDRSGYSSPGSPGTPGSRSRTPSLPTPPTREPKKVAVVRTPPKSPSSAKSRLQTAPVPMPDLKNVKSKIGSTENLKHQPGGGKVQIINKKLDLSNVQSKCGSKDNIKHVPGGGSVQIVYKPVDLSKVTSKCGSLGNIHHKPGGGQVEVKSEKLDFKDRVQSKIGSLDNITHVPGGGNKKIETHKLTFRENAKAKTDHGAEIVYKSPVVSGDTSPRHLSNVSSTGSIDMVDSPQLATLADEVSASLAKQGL
In short: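 Fibril formation assay: tau K18 P301L at 15 uM with trace Alexa 594 label, heparin inducer 20 uM, pH 7 sodium acetate buffer, 37 C for 6 hr; endpoint ThT signal.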
Note: nearly all actives have a fitted effect of over 55% in size.
Potency is the fitted concentration of half-maximal effect; tags give direction and shape of the fitted curve.

SMILES	Potency
Cc1ncc(CN2CCN(C(C)C)C(CCO)C2)s1 (stereo unspecified)	inactive
CCOC(=O)C1=C[C@@]2(CC)CCCN3CCc4c(n1c1ccccc41)C32 (stereo partly specified)	inactive
COc1ccc(-c2nc(SCC(=O)Nc3ccccc3)c(-c3ccc(F)cc3)[nH]2)cc1OC	inconclusive: 17.8 µM [inhibitor, partial curve]
CCS(=O)(=O)N1CCc2cc(C(=O)N3CCN(c4ccc(OC)cc4)CC3)ccc21	inconclusive: 39.8 µM [inhibitor, single point]
CC(C)(C)c1cc(C(=O)N/N=C/c2ccc([N+](=O)[O-])s2)n[nH]1	inconclusive: 11.2 µM [inhibitor, partial curve]
CC1CCc2c(C(=O)Nc3ccc(N4CCOCC4)cc3)csc2C1 (stereo unspecified)	inconclusive: 17.8 µM [inhibitor, partial curve]
Cc1c(CCOC(=O)CC23CC4CC(CC(C4)C2)C3)sc[n+]1CC(=O)c1ccc(Br)cc1	inconclusive: 25.1 µM [inhibitor, single point]
COc1ccc(S(=O)(=O)NCc2cccn2Cc2cccc(C)c2)cc1Cl	inconclusive: 44.7 µM [inhibitor, single point]
CCO[C@H]1OC(C(=O)Nc2ccccc2)=C[C@@H](C)[C@@H]1CCCO	inactive
C=C(C)C1CC=C(C)/C(=N\NC(=S)Nc2ccc(C)cc2)C1 (stereo unspecified)	inconclusive: 6.31 µM [inhibitor, partial curve]
CCOC(=O)c1ccc(NC(=S)Nc2ccc3[nH]c(=O)[nH]c3c2)cc1	inconclusive: 12.6 µM [inhibitor, partial curve]
Cc1cc(NC(=O)CSc2c3c(nc4ccccc24)CCC3)no1	inconclusive: 17.8 µM [inhibitor, single point]
Nc1nnc(C(F)(F)F)s1	inactive
O=C(Nc1ccc(F)cc1F)c1cccc2c1C(=O)N(C1CCCCC1)C2	inconclusive: 15.8 µM [inhibitor, partial curve, poor fit]
CN(C)c1ccc(NC(=O)Nc2cccc(Cl)c2)cc1	active: 12.6 µM
COc1cccc(-n2c(SCC(=O)N3CCc4ccccc43)nc3c([nH]c4ccccc43)c2=O)c1	inconclusive: 28.2 µM [activator, partial curve, poor fit]
O=C(COC(=O)c1ccc(-c2ccc([N+](=O)[O-])cc2)o1)NC(=O)NC1CCCCC1	inconclusive: 3.55 µM [inhibitor, full curve]
Cc1cc(C)c(O)c(-c2cc(C(=O)NCc3ccccc3)[nH]n2)c1	inconclusive: 20 µM [inhibitor, partial curve, poor fit]
Cc1ccc(C(C(=O)NCc2ccco2)N(C(=O)CNC(=O)c2cccs2)c2ccc(C)cc2C)cc1 (stereo unspecified)	inconclusive: 25.1 µM [inhibitor, partial curve, poor fit]
Cc1ccc(C)c(NC(=O)CN2CCSc3ccc(S(=O)(=O)N4CCCC4)cc32)c1	inactive
CC(C)=NNc1nc2sc3c(c2c(=O)[nH]1)CC(C)(C)OC3	inconclusive: 28.2 µM [inhibitor, single point]

SMILES	Potency
Cc1ccc(-n2nc(-c3ccccc3)cc2Nc2ccccc2N)cc1	inconclusive: 15.8 µM [inhibitor, partial curve]
Cc1cccc(NC(=O)c2cc(S(=O)(=O)NCCc3ccccc3)ccc2F)c1C	inactive
COc1ccc(CC(=O)c2ccc(OC)c(OC)c2)cc1	inactive
COc1ccc2c(C)nc(Nc3nc(C)c(C)c(=O)[nH]3)nc2c1	inconclusive: 0.891 µM [inhibitor, full curve]
CCN1CCN(Cc2c(O)ccc3c(C)c(-c4ccc(OC)cc4)c(=O)oc23)CC1	inconclusive: 8.91 µM [inhibitor, single point]
O=C(NC1CC1)c1sc2cc([N+](=O)[O-])ccc2c1Cl	inconclusive: 8.91 µM [inhibitor, partial curve]
CCN(CC)CCOC(=O)c1ccc(NC(=O)c2cc3c(=O)n(CC)c4ccccc4c3s2)cc1	inconclusive: 3.98 µM [activator, single point]
Cc1ccc(-c2nc(CS(=O)CC(=O)NCc3ccc(Cl)cc3)c(C)o2)cc1 (stereo unspecified)	inconclusive: 8.91 µM [inhibitor, partial curve]
CN1CCc2cc(O)c(O)cc2C(c2ccccc2)C1 (stereo unspecified)	inconclusive: 5.62 µM [inhibitor, full curve]
COc1cc(/C=C2\SC(=Nc3c(C)n(C)n(-c4ccccc4)c3=O)NC2=O)ccc1O	inconclusive: 17.8 µM [inhibitor, partial curve]
CCCc1nn2c(=O)cc(COC(=O)c3ccc(NC(=O)COc4ccc(F)cc4)cc3)nc2s1	inactive
CCOC(=O)c1ccc(NC(=O)CC2COc3ccccc3O2)cc1 (stereo unspecified)	inconclusive: 3.16 µM [inhibitor, full curve]
CS(=O)(=O)N1CCN(c2ccccc2NC(=O)c2ccc(Br)o2)CC1	inactive
COc1ccc(C2NC(=O)N(C)C3=C2C(=O)N(c2ccc(Br)cc2)C3)cc1 (stereo unspecified)	inconclusive: 44.7 µM [inhibitor, single point]
CCCc1nc2ccccc2c(NC(=O)CN(CC)CC)c1CC	inconclusive: 44.7 µM [inhibitor, single point]
O=C(Nc1ccc2c(c1)OCO2)c1cccc(Cl)c1	inconclusive: 25.1 µM [inhibitor, partial curve]
CCc1ccc(-n2cc(-c3ccc([N+](=O)[O-])cc3)[nH]c2=S)cc1	inconclusive: 0.501 µM [inhibitor, full curve]
CC(=O)OC1C=C[C@]2(C)C(CC(OC(C)=O)[C@@]3(C)C4=CC(=O)OC(c5ccoc5)[C@]4(C)CCC23)C1(C)C (stereo partly specified)	inconclusive: 1.12 µM [inhibitor, partial curve]
CC(C)c1ccc(S(=O)(=O)N2CCC(n3c(C(F)(F)F)nc4cccnc43)CC2)cc1	inconclusive: 14.1 µM [inhibitor, partial curve, poor fit]
CCN(CC)CCn1c(NC(=O)c2ccc(C(F)(F)F)cc2)nc2ccccc21	inactive
